{
  "source": "paper PMC6919601",
  "about": "“Identification of Plasmodium dipeptidyl aminopeptidase allosteric inhibitors by high throughput screening” (PLoS ONE, 2019)",
  "note": "Screen size: about 110,000 compounds; about 230 (0.21%) showed an effect of 50% or more. The list shows a part of the results.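 Also: 30 min substrate incubation versus DMSO and 10 µM JCP410 controls.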",
  "data": [
    {"target": "DPAP1 (Plasmodium falciparum, UniProt Q8IIJ9)", "sequence (Q8IIJ9 whole entry, looked up)": "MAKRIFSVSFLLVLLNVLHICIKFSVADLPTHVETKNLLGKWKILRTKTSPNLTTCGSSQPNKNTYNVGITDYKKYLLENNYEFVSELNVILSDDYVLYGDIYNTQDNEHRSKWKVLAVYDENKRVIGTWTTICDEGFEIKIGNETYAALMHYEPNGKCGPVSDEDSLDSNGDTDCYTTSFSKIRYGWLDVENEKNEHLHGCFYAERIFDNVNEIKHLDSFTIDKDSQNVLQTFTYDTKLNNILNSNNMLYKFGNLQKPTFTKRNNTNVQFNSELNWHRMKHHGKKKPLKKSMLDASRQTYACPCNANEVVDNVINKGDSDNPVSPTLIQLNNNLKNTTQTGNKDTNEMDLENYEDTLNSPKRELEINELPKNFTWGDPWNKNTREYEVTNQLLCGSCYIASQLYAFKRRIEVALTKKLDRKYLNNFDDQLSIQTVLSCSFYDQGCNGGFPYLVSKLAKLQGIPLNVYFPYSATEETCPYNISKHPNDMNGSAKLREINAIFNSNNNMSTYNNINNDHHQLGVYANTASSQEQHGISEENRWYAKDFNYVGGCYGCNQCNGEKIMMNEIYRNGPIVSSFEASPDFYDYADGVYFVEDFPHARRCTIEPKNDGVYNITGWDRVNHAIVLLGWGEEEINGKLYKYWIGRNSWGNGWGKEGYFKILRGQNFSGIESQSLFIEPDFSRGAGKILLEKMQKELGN", "assay": "primary screen, percent inhibition; read by cleavage of a fluorogenic dipeptide substrate; higher = more effect of the substance", "design": "species or system P. falciparum D10 trophozoite lysates; single well", "units": {"% Inhibition @ 10 uM": "%"}, "values": [
      {"compound": "CCc1ccccc1NC(=O)Cn1nc(C(F)(F)F)cc1C1CC1", "% Inhibition @ 10 uM": -3.92},
      {"compound": "COc1ccc(C(=O)NCCc2ccccc2)cc1", "% Inhibition @ 10 uM": -0.128},
      {"compound": "CCOC(=O)C1=C(CC)OC(N)=C(C#N)C1c1ccc(OC)c(Br)c1", "note": "(stereo not drawn)", "% Inhibition @ 10 uM": -5.65},
      {"compound": "CCOC(=O)c1c(NS(=O)(=O)c2ccc([N+](=O)[O-])cc2)sc(C)c1C", "% Inhibition @ 10 uM": -6.99},
      {"compound": "CCN(CC)C(=O)/C(=C/c1cn(CC)c2ccccc12)NC(=O)c1ccccc1F", "% Inhibition @ 10 uM": -1.74},
      {"compound": "CNC(=O)/C(C#N)=C/c1c(Oc2ccccc2)nc2ccccn2c1=O", "% Inhibition @ 10 uM": -0.828},
      {"compound": "Cc1ccc(C2C(C(=O)c3ccccc3)=C(O)C(=O)N2CCN2CCOCC2)o1", "note": "(stereo not drawn)", "% Inhibition @ 10 uM": -1.25},
      {"compound": "Cn1c(C(=O)N2CCC(C(=O)N3CCN(C(=O)c4ccco4)CC3)CC2)cc2sccc21", "% Inhibition @ 10 uM": 4.95},
      {"compound": "Cc1c(C(=O)NCCN2CCOCC2)oc2c1-c1nn(Cc3ccccc3Cl)cc1CC2", "% Inhibition @ 10 uM": -4.49},
      {"compound": "CC1=C(C(=O)OCCOc2ccccc2)C(c2cccc(Cl)c2)C2=C(O)CCCC2=N1", "note": "(stereo not drawn)", "% Inhibition @ 10 uM": 11.8},
      {"compound": "CCOC(=O)c1sc(Nc2nc(N(C)C)nc(N(C)C)n2)nc1C", "% Inhibition @ 10 uM": -3.08},
      {"compound": "O=C(Nc1ccc(O)cc1)c1ccc(Br)cc1", "% Inhibition @ 10 uM": 0.641},
      {"compound": "CCOC(=O)N1CCN(C(=O)/C(=C\\c2cccs2)NC(=O)c2ccccc2)CC1", "% Inhibition @ 10 uM": 3.05},
      {"compound": "Cn1c(Cn2nnc(-c3ccccc3)n2)nnc1SCC(N)=O", "% Inhibition @ 10 uM": -0.403},
      {"compound": "CC(Oc1cccc(Cl)c1)C(=O)Nc1ccc(F)c(F)c1", "note": "(stereo not drawn)", "% Inhibition @ 10 uM": 5.24},
      {"compound": "COc1ccc(-c2cnnn2-c2nonc2-n2cccc2)cc1", "% Inhibition @ 10 uM": -1.05},
      {"compound": "CN1C(=O)c2cccc(NCCCCN3C(=O)c4ccccc4C3=O)c2C1=O", "% Inhibition @ 10 uM": -5.79},
      {"compound": "CCC12CC3CC(C1)CC(NC(=O)NC14CC5CC(CC(CC)(C5)C1)C4)(C3)C2", "% Inhibition @ 10 uM": -6.12},
      {"compound": "N#Cc1c(NCc2ccccc2)ccnc1SCc1ccccc1", "% Inhibition @ 10 uM": -0.693},
      {"compound": "CC12CN3CC(C)(CN(C1)C3c1cccc(Br)c1)C2", "note": "(stereo not drawn)", "% Inhibition @ 10 uM": -10.2},
      {"compound": "COCCNC(=O)Cn1cc(C#N)c2ccccc21", "% Inhibition @ 10 uM": -4.65},
      {"compound": "CC1CN(C(=O)c2ccccc2)c2ccccc2NC1=O", "note": "(stereo not drawn)", "% Inhibition @ 10 uM": -6.74},
      {"compound": "Cc1coc2c(C)c3oc(=O)c(CCC(=O)NCc4ccco4)c(C)c3cc12", "% Inhibition @ 10 uM": 0.895},
      {"compound": "CC1=C(c2ccc(C)cc2)S(=O)(=O)N=C1N1CCOCC1", "% Inhibition @ 10 uM": 8.36},
      {"compound": "CO/C(O)=C1\\C(C)=NC2=C(C(=O)CC(c3cccs3)C2)C1c1ccc(C)o1", "note": "(stereo not drawn)", "% Inhibition @ 10 uM": -6.6},
      {"compound": "CCSc1nnc2n(CCOc3ccccc3)c3ccccc3n12", "% Inhibition @ 10 uM": -0.499},
      {"compound": "CN(C)c1nc(N)nc(COC(=O)c2nn(-c3ccccc3)nc2N)n1", "% Inhibition @ 10 uM": -0.348}
    ]}
  ]
}
